In all, about 210,000 compounds went through this assay and about 5,900 (2.8%) were called active. Inconclusive means that the source gave no clear call. Such entries were picked first, then a sample of the others. The call rests on the fitted dose curve; in most records, active means well fitted activation curve with a large enough effect; inconclusive means small, poorly fitted or top-dose-only effect; inactive means no such curve, though single readings can be large or run the other way. A potency beside an inconclusive call is a rough fit, not a confirmed value.
Assay: qHTS Assay for Enhancers of SMN2 Splice Variant Expression; further: nearly all actives have a fitted effect of over 55% in size; on activity change, positive = activation: % of control where 0% means no effect
Settings: HEK293 SMN2-luciferase splicing reporter, luminescence, 30-36 h; activity change, positive = activation: at 46.1 µM (top of the series)
Procedure, shortened: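 qHTS luciferase splicing reporter: luminescence rises when SMN2 exon 7 is included in transfected HEK293 cells. Compound exposure lasted 30-36 h at 37C, with 4.5 mM final sodium butyrate as control, followed by a ONE-Glo read.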
With `CCOC(=O)c1cc(-c2ccc(C)cc2)nn1Cc1ccccc1` the Potency was inconclusive: 25.1 µM [activator, single point]. For `Cc1nn(CC2CCCCC2)c(N)c1-c1ccccc1`, the “activity change, positive = activation” value was inactive: -12.9%. For `COc1ccc(C(=O)n2nc(-c3ccc(Cl)cc3)nc2N)cc1OC`, the Potency was active: 25.1 µM. With `Cc1ccc(Nc2nnc(-c3ccc4c(c3)OCO4)o2)c(C)c1` the activity change, positive = activation was inactive: 9.54% [at 9.22 µM]. For `Fc1ccccc1CSc1nc2ncc(Br)cc2[nH]1`, the Potency was inconclusive: 10 µM [activator, partial curve]. For `CC1CCCN(c2ccc(C(=O)NCC3CCCO3)cn2)C1` (configuration not stated), the Potency was active: 12.6 µM. In the case of `CSCCC=O`, the “activity change, positive = activation” value is reported as inactive: 4.18%. With `Cc1cccc(C(=O)N2c3ccccc3C(=O)OC2c2ccc3c(c2)OCO3)c1` (configuration not stated) the Potency was inconclusive: 11.2 µM [activator, partial curve]. For `CCCc1cc2c(=O)c(-c3ccc4c(c3)OCCO4)coc2cc1OC(=O)c1ccco1`, the Potency was inconclusive: 2 µM [activator, partial curve]. For `Cc1ccc(C(=O)NC(=S)Nc2ccc(NC(=O)c3cccc(Cl)c3)cc2)cc1`, the Potency was inconclusive: 3.98 µM [activator, single point]. For `CSc1ccccc1C(=O)Nc1ccc(C)c(C)c1`, the Potency was inconclusive: 35.5 µM [activator, partial curve, poor fit]. For `C=CCn1c(SCC(=O)c2ccc(F)cc2)nnc1-c1ccc2c(c1)OCO2`, the “activity change, positive = activation” value was inactive: -17.8%. With `CCOC(=O)N1CCN(C(=O)C2CCCN(S(=O)(=O)c3cc(C)ccc3OC)C2)CC1` (configuration not stated) the Potency was inconclusive: 3.98 µM [activator, full curve]. In the case of `O=C1CN(c2nc(-c3cccs3)nc3sc4c(c23)CCCC4)CCN1`, the Potency is reported as inconclusive: 12.6 µM [activator, partial curve, poor fit]. With `CSc1ncccc1C(=O)Nc1ccc(OC(F)(F)F)cc1` the “activity change, positive = activation” value was inactive: -4.65%. In the case of `CCOC(=O)CSC1=C(C#N)C(c2ccco2)C(C(=O)Nc2cccc(C(F)(F)F)c2)=C(C)N1` (configuration not stated), the Potency is reported as inconclusive: 0.141 µM [activator, full curve, poor fit]. With `O=C(Nn1cnnc1)c1cc2cc(Br)ccc2oc1=O` the Potency was inconclusive: 35.5 µM [activator, partial curve]. In the case of `O=[N+]([O-])c1ccc(N=NNc2ccccc2)cc1`, the Potency is reported as active: 15.8 µM. In the case of `COc1ccc(C(=O)Nc2ccccc2C(N)=O)cc1`, the Potency is reported as active: 31.6 µM. With `Cc1cccc(NC(=O)CSc2nnc(-c3n[nH]c4ccccc34)o2)c1` the Potency was inconclusive: 12.6 µM [activator, single point]. In the case of `COCC(C)n1c(SCc2nc3ccccc3c(=O)[nH]2)nc2ccccc2c1=O` (configuration not stated), the Potency is reported as inconclusive: 14.1 µM [activator, single point]. With `COc1cc(NC(=O)c2cccc3c2C(=O)N(Cc2cccnc2)C3)cc(OC)c1OC` the Potency was inconclusive: 22.4 µM [activator, single point]. With `CCOc1nc(NCc2ccco2)nc(Nc2ccccc2F)n1` the Potency was active: 7.08 µM. In the case of `COc1ccc(NC(=O)Nc2ccc(OC)cc2)cc1`, the Potency is reported as inconclusive: 11.2 µM [activator, partial curve]. With `Cc1ccc(C(=O)N/C(=C/c2cccnc2)C(=O)O)cc1` the Potency was inconclusive: 1.41 µM [activator, partial curve]. For `CC1(C)C(=O)C2(CCCCC2)C(=O)OC1c1cccs1` (configuration not stated), the Potency was inconclusive: 14.1 µM [activator, partial curve, poor fit]. For `COc1ccccc1CNC(=O)CCCCn1c(=O)c2ccccc2n(Cc2c(C)cc(C)cc2C)c1=O`, the “activity change, positive = activation” value was inactive: -9.77%. For `C=CCn1c(SCC(=O)NCC)nnc1-c1cc2c(s1)CCC(CC)C2` (configuration not stated), the Potency was inconclusive: 8.91 µM [activator, partial curve, poor fit]. For `Cn1c(N)c(C(=O)COC(=O)CSc2ccc(Cl)cc2)c(=O)n(C)c1=O`, the Potency was inconclusive: 6.31 µM [activator, single point]. In the case of `Cc1nn2c(-c3ccc(Cl)cc3Cl)nnc2s1`, the “activity change, positive = activation” value is reported as inactive: 3.73%. For `C=CCN1C(=O)S/C(=C\c2ccc3c(c2)n(C)c(=O)n3C)C1=O`, the Potency was inconclusive: 35.5 µM [activator, single point]. With `C=CCNC(=O)c1ccc(-c2nc(-c3ccc(Cl)cc3Cl)cs2)cc1` the Potency was active: 4.47 µM. In the case of `Cc1ccc(CCNC(=O)C(CC(C)C)NS(=O)(=O)c2ccc3c(c2)oc(=O)n3C)cc1` (configuration not stated), the Potency is reported as inconclusive: 0.708 µM [activator, full curve, poor fit]. For `Cc1cccc(N2CCN(C(=O)c3cc4c(=O)n(C)c5ccccc5c4n3C)CC2C)c1` (configuration not stated), the “activity change, positive = activation” value was inactive: -9.51%. For `CC(=O)C1=C(C)NC(SCC(=O)c2ccc(C)cc2)=C(C#N)C1c1ccco1` (configuration not stated), the Potency was inconclusive: 22.4 µM [activator, single point]. In the case of `COc1cc(C(=O)Nc2nccs2)cc(OC)c1OC`, the Potency is reported as inconclusive: 6.31 µM [activator, full curve, poor fit]. For `CCCCCn1cnc2sc(-c3ccccc3)cc2c1=O`, the Potency was inconclusive: 0.562 µM [activator, full curve]. In the case of `CCN1CCN(c2ncc(C(=O)N3CCCc4ccccc43)c3ccccc23)CC1`, the Potency is reported as inconclusive: 6.31 µM [activator, partial curve, poor fit]. In the case of `CCn1c(=NC(=O)c2ccc(S(=O)(=O)N3CCCCC3)cc2)sc2cccc(OC)c21`, the activity change, positive = activation is reported as inconclusive: 35.8% [activator]. For `CCCCCCCCCCOC(=O)NC1CCS(=O)(=O)C1` (configuration not stated), the “activity change, positive = activation” value was inactive: -28.8%. With `Cc1c(Cl)cccc1NC(=S)NC(=O)CCN1C(=O)c2ccccc2C1=O` the Potency was inconclusive: 0.199 µM [activator, full curve, poor fit]. In the case of `CCOc1ccccc1C(=O)Nc1ccc2nc3c(c(Nc4ccc(OC)c(OC)c4)c2c1)CCCC3`, the “activity change, positive = activation” value is reported as inactive: -76.2%. For `COc1ccccc1C(=O)Nc1onc2c1CCCC2`, the Potency was active: 3.55 µM. With `COc1cccc(CNC(=O)C(Cc2ccccc2)NS(=O)(=O)c2ccc3c(c2)oc(=O)n3C)c1` (configuration not stated) the “activity change, positive = activation” value was inactive: -4.77%. In the case of `CN1CCCC(OC(=O)CCCCC(=O)OC2CCCN(C)C2)C1` (configuration not stated), the Potency is reported as inconclusive: 0.141 µM [activator, full curve, poor fit]. For `NC(=S)N/N=C/c1coc2ccc(Cl)cc2c1=O`, the “activity change, positive = activation” value was inactive: -15.9%. With `COc1ccc(CCNC(=O)CSc2nnc(Cc3cccn3C)n2C)cc1OC` the “activity change, positive = activation” value was inactive: -61%. For `Cc1ccccc1CSCC(=O)NC(=O)NCc1ccco1`, the activity change, positive = activation was inconclusive: 40.5% [activator]. In the case of `CC(Sc1nc2ccccc2[nH]1)C(=O)O` (configuration not stated), the Potency is reported as inconclusive: 3.98 µM [activator, full curve, poor fit]. For `O=C(c1cnccn1)N1CCC2(CCCN(C(c3ccccc3)c3ccccc3)C2)CC1`, the “activity change, positive = activation” value was inactive: -38.7%. For `CCCc1cc2c(cc1NC(=O)c1ccc(C(C)(C)C)cc1)OCO2`, the Potency was inconclusive: 12.6 µM [activator, partial curve]. For `Cc1ccccc1/C=N/N1CCN(c2ccccc2)CC1`, the Potency was inconclusive: 14.1 µM [activator, single point]. In the case of `CCOC(=O)c1c(C)[nH]c(C=Nc2ccccc2)c1O`, the Potency is reported as inconclusive: 3.55 µM [activator, partial curve]. With `COc1ccccc1-c1cc(C(F)(F)F)nc(S(=O)(=O)CCCC(=O)Nc2cc(C)on2)n1` the Potency was inconclusive: 35.5 µM [activator, single point]. In the case of `C=CCOC(=O)c1sc(NC(=O)c2ccc(OC)cc2)nc1C`, the Potency is reported as inconclusive: 8.91 µM [activator, partial curve]. With `Clc1ccc(-c2csc(-c3ccncc3)n2)cc1` the Potency was inconclusive: 11.2 µM [activator, single point]. In the case of `Nc1ccc(S(=O)(=O)O)cc1`, the “activity change, positive = activation” value is reported as inactive: 1.8%. In the case of `COc1cccc(C(=O)Nc2cccc(SC)c2)c1`, the Potency is reported as inconclusive: 15.8 µM [activator, single point]. In the case of `O=C(O)CCCCCNc1nc2ncn(Cc3ccccc3)c2c(=O)[nH]1`, the Potency is reported as inconclusive: 0.0032 µM [activator, full curve, poor fit]. For `CCSc1nnc(NC(=O)c2cc3c(s2)CCCC3)s1`, the Potency was inconclusive: 12.6 µM [activator, partial curve]. With `CCOc1ccc(Br)cc1S(=O)(=O)Nc1ccc(C(=O)Nc2ccc(C)cc2)cc1` the Potency was inconclusive: 20 µM [activator, single point]. In the case of `Cc1ccc(-c2csc(-c3c[nH]c4ccccc34)n2)cc1`, the Potency is reported as inconclusive: 35.5 µM [activator, single point]. In the case of `C=CCSc1nnc(NC(=O)c2cccc(S(=O)(=O)N(C)c3ccccc3)c2)s1`, the Potency is reported as inconclusive: 3.98 µM [activator, partial curve, poor fit]. With `CC1=CC(c2ccccc2)=Nc2ccc(C)cc2N1` the Potency was active: 10 µM. In the case of `CC1=Nc2cc([N+](=O)[O-])ccc2NC(C)(C)C1`, the “activity change, positive = activation” value is reported as inactive: -14.6%. In the case of `COC(=O)CNC(=O)C1(CC(C)C)C=CCN1C(=O)c1ccccc1` (configuration not stated), the Potency is reported as inconclusive: 11.2 µM [activator, partial curve]. In the case of `COc1ccccc1/C=C/CN1CC(C)OC(C)C1` (configuration not stated), the Potency is reported as inconclusive: 0.02 µM [activator, full curve, poor fit]. With `Cc1cc(C)cc(N2C(=O)C3C4C=CC(C4)C3C2=O)c1` (configuration not stated) the “activity change, positive = activation” value was inactive: -11.1%. For `COc1cccc(C(=O)Nc2ccccc2)c1`, the Potency was inconclusive: 35.5 µM [activator, single point]. For `CC(=O)Nc1cccc(-c2csc(NCc3ccco3)n2)c1`, the Potency was inconclusive: 0.02 µM [activator, full curve, poor fit]. With `CCc1nnc(NC(=O)c2sc3nc4c(cc3c2N)CCCCC4)s1` the Potency was active: 8.91 µM. For `O=C1CCC(=O)N1OCCCOc1ccc2c(c1)CCC2`, the Potency was inconclusive: 5.01 µM [activator, single point].
Potency means the concentration at half of the fitted maximal effect; tags describe the fitted curve by direction and shape.
